According to the supplement of paper PMC9174493:
Where a name gives a salt, the structure may show the parent alone. The list shows a part of the results. Single values of this set are uncertain. Values with irradiation are relative to irradiated vehicle.

Legend:
A549-Dual [1] = experiment: NF-kB reporter (SEAP) activity, viability-corrected, relative to vehicle (fold change vs vehicle); higher = more activation of STING-IRF / NF-kB immune response reporter
A549-Dual [2] = experiment: ISRE reporter (Lucia luciferase) activity, viability-corrected, relative to vehicle (fold change vs vehicle); higher = more activation of STING-IRF / NF-kB immune response reporter
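Throughout, for NF-kB reporter (SEAP) activity, viability-corrected, relative to vehicle: viability correction based on the alamar blue assay, with concentrations leaving 10% survival or less dropped.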

| SMILES | NF-kB reporter (A549-Dual [1]; 0.1 µM, irradiation: 8 Gy/4 fr) | NF-kB reporter (A549-Dual [1]; 0.1 µM, irradiation: none) | NF-kB reporter (A549-Dual [1]; 0.3 µM, irradiation: 8 Gy/4 fr) | NF-kB reporter (A549-Dual [1]; 0.3 µM, irradiation: none) | NF-kB reporter (A549-Dual [1]; 1 µM, irradiation: 8 Gy/4 fr) | NF-kB reporter (A549-Dual [1]; 1 µM, irradiation: none) | NF-kB reporter (A549-Dual [1]; 3 µM, irradiation: 8 Gy/4 fr) | NF-kB reporter (A549-Dual [1]; 3 µM, irradiation: none) | NF-kB reporter (A549-Dual [1]; 10 µM, irradiation: 8 Gy/4 fr) | NF-kB reporter (A549-Dual [1]; 10 µM, irradiation: none) | ISRE reporter (A549-Dual [2]; 0.1 µM, irradiation: 8 Gy/4 fr) | ISRE reporter (A549-Dual [2]; 0.1 µM, irradiation: none) | ISRE reporter (A549-Dual [2]; 0.3 µM, irradiation: 8 Gy/4 fr) | ISRE reporter (A549-Dual [2]; 0.3 µM, irradiation: none) | ISRE reporter (A549-Dual [2]; 1 µM, irradiation: 8 Gy/4 fr) | ISRE reporter (A549-Dual [2]; 1 µM, irradiation: none) | ISRE reporter (A549-Dual [2]; 3 µM, irradiation: 8 Gy/4 fr) | ISRE reporter (A549-Dual [2]; 3 µM, irradiation: none) | ISRE reporter (A549-Dual [2]; 10 µM, irradiation: 8 Gy/4 fr) | ISRE reporter (A549-Dual [2]; 10 µM, irradiation: none) |
| --- | --- | --- | --- | --- | --- | --- | --- | --- | --- | --- | --- | --- | --- | --- | --- | --- | --- | --- | --- | --- |
| CC(C)c1ccc2oc3nc(N)c(C(=O)O)cc3c(=O)c2c1 [Amlexanox] | 0.857 | 1.37 | 0.925 | 1.05 | 1.04 | 0.872 | 1.05 | 0.759 | 1.04 | 1 | 1.03 | 0.879 | 0.86 | 1.05 | 0.899 | 0.989 | 0.914 | 0.934 | 0.915 | 0.791 |
| CC(=O)OC1C(=O)C2(C)C(O)CC3OCC3(OC(C)=O)C2C(OC(=O)c2ccccc2)C2(O)CC(OC(=O)C(O)C(NC(=O)c3ccccc3)c3ccccc3)C(C)=C1C2(C)C (stereo not given) [Paclitaxel] | 1.12 | 2.68 | 1.34 | 2.62 | 1.09 | 2.35 | 1.3 | 2.2 | 1.28 | 2.03 | 0.52 | 5.18 | 0.728 | 4.77 | 0.62 | 4.43 | 0.906 | 6.35 | 0.774 | 7.04 |
| NC(CCC(=O)NC(CS)C(=O)NCC(=O)O)C(=O)O (stereo not given) [Glutathione] | 1.06 | 1.07 | 1.05 | 0.938 | 0.989 | 0.834 | 0.895 | 1.07 | 0.909 | 0.971 | 1.02 | 0.979 | 0.957 | 0.743 | 0.902 | 0.881 | 0.921 | 0.925 | 0.972 | 0.812 |
| NC(=O)NO [Hydroxyurea] | 0.917 | 0.937 | 0.924 | 0.975 | 0.811 | 0.976 | 1.01 | 0.834 | 0.904 | 0.897 | 1.14 | 0.937 | 1.07 | 1.02 | 0.876 | 0.967 | 1.03 | 0.846 | 1.02 | 0.917 |
| CC(C)CC(NC(=O)CNC(=O)c1cc(Cl)ccc1Cl)B1OC(=O)CC(CC(=O)O)(C(=O)O)O1 (stereo not given) [Ixazomib Citrate (MLN9708)] | 1.16 | 1.66 | 1.45 | 1.95 | 1.25 | 3.09 | 1.28 | 2.39 | 1 | 1.79 | 0.183 | 1.3 | 0.0694 | 0.496 | 0.099 | 0.521 | 0.104 | 0.464 | 0.067 | 0.381 |
| Nc1ccn(C2OC(CO)C(O)C2O)c(=O)n1 (stereo not given) [Cytarabine] | 0.83 | 1.04 | 0.569 | 1.11 | 0.622 | 1.26 | 0.899 | 1.29 | 1.09 | 1.35 | 0.792 | 2.55 | 0.444 | 2.21 | 0.478 | 2.34 | 0.491 | 2.23 | 0.494 | 1.8 |
| CN(C)CCN1C(=O)c2cccc3cc(N)cc(c23)C1=O [Amonafide] | 1.3 | 1.22 | 1.61 | 1.27 | 1.31 | 1.64 | 1.15 | 1.42 | 0.917 | 1.51 | 1.14 | 1.15 | 1.89 | 1.59 | 1.19 | 4.51 | 0.494 | 1.99 | 0.337 | 1.71 |
| CCNC(=O)C1CCCN1C(=O)C(CCCNC(=N)N)NC(=O)C(CC(C)C)NC(=O)C(CC(C)C)NC(=O)C(Cc1ccc(O)cc1)NC(=O)C(CO)NC(=O)C(Cc1c[nH]c2ccccc12)NC(=O)C(Cc1cnc[nH]1)NC(=O)C1CCC(=O)N1 (stereo not given) [Leuprorelin Acetate] | 0.872 | 0.929 | 0.758 | 0.725 | 0.865 | 0.858 | 0.815 | 0.925 | 0.839 | 0.855 | 0.929 | 1.17 | 0.871 | 0.851 | 0.921 | 0.976 | 0.916 | 0.791 | 0.945 | 0.783 |
| CC1(C(=O)O)CCC2(C)CCC3(C)C(=CC(=O)C4C5(C)CCC(OC6OC(C(=O)O)C(O)C(O)C6OC6OC(C(=O)O)C(O)C(O)C6O)C(C)(C)C5CCC43C)C2C1 (stereo not given) [Glycyrrhizin (Glycyrrhizic Acid)] | 0.545 | 0.502 | 0.68 | 0.487 | 0.528 | 0.573 | 0.473 | 0.576 | 0.566 | 0.612 | 0.682 | 0.644 | 0.683 | 0.628 | 0.541 | 0.88 | 0.617 | 0.893 | 0.765 | 0.529 |
| CCCCNC(=O)NS(=O)(=O)c1ccc(C)cc1 [Tolbutamide] | 1.17 | 1.07 | 1.01 | 1.2 | 1.03 | 1.41 | 0.881 | 1.25 | 0.963 | 1.18 | 1.05 | 0.87 | 1.09 | 1.05 | 1.09 | 0.997 | 0.952 | 0.89 | 1.06 | 0.985 |
| CCCS(=O)(=O)Nc1ccc(F)c(C(=O)c2c[nH]c3ncc(-c4ccc(Cl)cc4)cc23)c1F [Vemurafenib (PLX4032, RG7204)] | 0.797 | 1 | 0.86 | 0.924 | 0.711 | 0.841 | 0.534 | 0.671 | 0.58 | 0.675 | 0.861 | 0.949 | 0.969 | 1.03 | 0.726 | 1.02 | 0.492 | 0.892 | 0.643 | 1.21 |
| CC(C)(C)OC(=O)NC1CCCCC/C=C\C2CC2(C(=O)NS(=O)(=O)C2CC2)NC(=O)C2CC(OC(=O)N3Cc4cccc(F)c4C3)CN2C1=O (stereo not given) [Danoprevir (ITMN-191)] | 0.885 | 1 | 1.07 | 1.22 | 1.24 | 0.885 | 1.21 | 0.944 | 0.905 | 0.892 | 0.921 | 0.761 | 0.818 | 0.871 | 0.844 | 0.787 | 0.782 | 0.824 | 0.863 | 0.873 |
